{
  "source": "paper PMC4336329",
  "about": "(PLoS ONE, 2015)",
  "note": "The whole screen tested about 310,000 compounds, of which about 2,200 (0.71%) showed an effect of 50% or more. Effects have a minus sign here. The list shows a part of the results.",
  "data": [
    {"molecular_target": "human ether-à-go-go-related gene (hERG) potassium channel (human, UniProt Q12809)", "sequence (Q12809 whole entry, looked up)": "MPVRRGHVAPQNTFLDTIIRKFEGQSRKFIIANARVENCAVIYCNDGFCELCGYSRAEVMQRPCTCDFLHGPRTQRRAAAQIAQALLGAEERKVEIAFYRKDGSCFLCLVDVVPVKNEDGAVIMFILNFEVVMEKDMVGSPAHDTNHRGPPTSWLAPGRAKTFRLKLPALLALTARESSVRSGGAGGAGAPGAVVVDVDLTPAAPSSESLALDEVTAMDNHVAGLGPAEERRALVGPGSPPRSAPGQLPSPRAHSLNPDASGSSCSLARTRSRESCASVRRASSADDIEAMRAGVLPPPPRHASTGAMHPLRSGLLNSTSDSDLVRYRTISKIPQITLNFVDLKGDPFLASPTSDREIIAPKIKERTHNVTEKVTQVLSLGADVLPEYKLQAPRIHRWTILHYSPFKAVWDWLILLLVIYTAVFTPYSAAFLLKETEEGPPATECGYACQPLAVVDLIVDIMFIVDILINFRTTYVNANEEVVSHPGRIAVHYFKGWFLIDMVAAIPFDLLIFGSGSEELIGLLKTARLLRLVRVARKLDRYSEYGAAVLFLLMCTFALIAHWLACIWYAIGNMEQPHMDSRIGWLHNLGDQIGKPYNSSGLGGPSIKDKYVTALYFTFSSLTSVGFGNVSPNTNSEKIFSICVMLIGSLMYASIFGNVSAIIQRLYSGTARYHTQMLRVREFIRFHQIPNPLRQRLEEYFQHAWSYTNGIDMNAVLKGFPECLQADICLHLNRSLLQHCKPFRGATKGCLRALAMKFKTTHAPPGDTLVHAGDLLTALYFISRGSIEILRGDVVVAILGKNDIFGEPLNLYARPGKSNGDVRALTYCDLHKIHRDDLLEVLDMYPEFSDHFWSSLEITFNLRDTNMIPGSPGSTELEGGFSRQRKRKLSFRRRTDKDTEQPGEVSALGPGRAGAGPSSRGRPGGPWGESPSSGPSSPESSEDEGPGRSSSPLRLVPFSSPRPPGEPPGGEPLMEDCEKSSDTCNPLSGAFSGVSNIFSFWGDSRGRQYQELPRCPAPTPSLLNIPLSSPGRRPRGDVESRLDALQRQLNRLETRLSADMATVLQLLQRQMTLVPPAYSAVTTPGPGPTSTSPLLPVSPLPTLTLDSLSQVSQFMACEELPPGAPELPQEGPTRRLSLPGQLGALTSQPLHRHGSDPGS", "experiment": "primary screen, population patch clamp on CHO cells stably expressing hERG", "units": {"hERG current change (%, negative = inhibition) at 1uM": "%"}, "values": [
      {"smiles": "O=C(CN1CCN(c2ccccn2)CC1)Nc1cc(F)ccc1F", "hERG current change (%, negative = inhibition) at 1uM": 6.63},
      {"smiles": "O=C1C=CC(=O)N1c1ccc(Sc2ccc([N+](=O)[O-])cc2)cc1", "hERG current change (%, negative = inhibition) at 1uM": 7.38},
      {"smiles": "CCS(=O)(=O)NCc1ccc2c(c1)cc(C)n2C", "hERG current change (%, negative = inhibition) at 1uM": 18.2},
      {"smiles": "COc1cccc(C(=O)N2CCN(Cc3ccccc3[N+](=O)[O-])CC2)c1", "hERG current change (%, negative = inhibition) at 1uM": 3.04},
      {"smiles": "COc1c(O)ccc(/C=C(\\C#N)c2nc3ccccc3[nH]2)c1[N+](=O)[O-]", "hERG current change (%, negative = inhibition) at 1uM": 7.04},
      {"smiles": "COc1ccccc1N/C(=N/S(=O)(=O)c1ccc(C)cc1)c1ccccc1", "hERG current change (%, negative = inhibition) at 1uM": 9.64},
      {"smiles": "COc1ccc(C(=O)OCC(=O)c2cc(C)n(CC3CCCO3)c2C)cc1[N+](=O)[O-]", "note": "(stereo not shown)", "hERG current change (%, negative = inhibition) at 1uM": -2.29},
      {"smiles": "Cc1ccc(S(=O)(=O)Nc2cc(C(=O)NCCN(C)C)ccc2N2CCCCC2)cc1", "hERG current change (%, negative = inhibition) at 1uM": 0.705},
      {"smiles": "O=C(Cc1ccc([N+](=O)[O-])cc1)c1c(O)cc(O)cc1O", "hERG current change (%, negative = inhibition) at 1uM": 7.01},
      {"smiles": "Cc1cc(C)c(S(C)(=O)=O)c(N(C)N)n1", "hERG current change (%, negative = inhibition) at 1uM": 16.5},
      {"smiles": "COc1cc(-c2c(NC(=O)c3ccco3)oc3ccccc3c2=O)cc(OC)c1OC", "hERG current change (%, negative = inhibition) at 1uM": 15.3},
      {"smiles": "Nc1c(C(=O)CSc2n[nH]c(-c3ccccc3Br)n2)c(=O)[nH]c(=O)n1C1CC1", "hERG current change (%, negative = inhibition) at 1uM": 7.19},
      {"smiles": "Cc1ccc(-c2nnc3n2N=C(c2ccccc2Br)CS3)cc1", "hERG current change (%, negative = inhibition) at 1uM": 10.3},
      {"smiles": "CCCn1nc(NC(=O)C(C)(C)C)c2cc3cc(OC)ccc3nc21", "hERG current change (%, negative = inhibition) at 1uM": 5.56},
      {"smiles": "O=C(NCc1cccs1)C1CCCN(C(=O)Nc2ccc(F)cc2)C1", "note": "(stereo not shown)", "hERG current change (%, negative = inhibition) at 1uM": 8.45},
      {"smiles": "CCCC(=O)Nc1cc2c3c(c1)CCN3C(=O)CC2", "hERG current change (%, negative = inhibition) at 1uM": 23.7},
      {"smiles": "CC(=O)c1cc2c(cc1NC(=O)Cn1nc(C)c(C)c(C#N)c1=O)OCO2", "hERG current change (%, negative = inhibition) at 1uM": 5.05},
      {"smiles": "O=C(CSc1nnnn1-c1ccccc1)NC1CCCc2ccccc21", "note": "(stereo not shown)", "hERG current change (%, negative = inhibition) at 1uM": 7.23},
      {"smiles": "COCCNC(=O)c1cc(-c2ccccc2OC)on1", "hERG current change (%, negative = inhibition) at 1uM": 3.78},
      {"smiles": "CCc1nnc(NC(=O)CSc2ccc(-c3ccccc3OC)nn2)s1", "hERG current change (%, negative = inhibition) at 1uM": 0.444},
      {"smiles": "CO/N=C/c1ccc(N2CCN(C(=O)c3ccc(F)cc3)CC2)c([N+](=O)[O-])c1", "hERG current change (%, negative = inhibition) at 1uM": -78.1},
      {"smiles": "CCOc1c(Br)cc(CNCc2cccs2)cc1OC.Cl", "hERG current change (%, negative = inhibition) at 1uM": 4.69},
      {"smiles": "CCC(=O)N1CCN(c2ccc(Cl)cc2NC(=O)Cc2ccccc2)CC1", "hERG current change (%, negative = inhibition) at 1uM": -3.75},
      {"smiles": "COC(=O)C(CCCCNC(=O)c1ccc([N+](=O)[O-])cc1)NC(=O)c1ccc([N+](=O)[O-])cc1", "note": "(stereo not shown)", "hERG current change (%, negative = inhibition) at 1uM": -84.2},
      {"smiles": "CCOc1cc(NC(=O)C2CC2)c(OCC)cc1NC(=O)c1ccccn1", "hERG current change (%, negative = inhibition) at 1uM": -2.84},
      {"smiles": "CC1=C(C(=O)OCc2ccccc2)C(c2ccccc2Cl)NC(=O)N1CCCC(=O)O", "note": "(stereo not shown)", "hERG current change (%, negative = inhibition) at 1uM": 12},
      {"smiles": "CCOc1ccc(Cn2c(=O)oc3ccc(C)cc32)cc1OC", "hERG current change (%, negative = inhibition) at 1uM": 17.4},
      {"smiles": "Cc1cc(C)c(N=C2CCCN2Cc2ccccc2)c(C#N)c1", "hERG current change (%, negative = inhibition) at 1uM": 15.5},
      {"smiles": "COc1cccc(-c2noc(-c3ccc(Cl)nc3)n2)c1", "hERG current change (%, negative = inhibition) at 1uM": 13.7},
      {"smiles": "CC(C)CCCN1C(N(C)C)=NC[C@@H]1C", "hERG current change (%, negative = inhibition) at 1uM": 1.68},
      {"smiles": "CN(C(=O)C1CCC(=O)N(CCc2ccc(Cl)cc2)C1)C1CCOCC1", "note": "(stereo not shown)", "hERG current change (%, negative = inhibition) at 1uM": 17.5},
      {"smiles": "CC(Oc1ccc2c(-c3ccccc3)cc(=O)oc2c1)C(=O)NCC(O)c1ccccc1", "note": "(stereo not shown)", "hERG current change (%, negative = inhibition) at 1uM": 14.8},
      {"smiles": "CC1=C(C(=O)OCc2ccccc2)C(c2ccc(C)o2)C2=C(CCCC2=O)N1", "note": "(stereo not shown)", "hERG current change (%, negative = inhibition) at 1uM": 13.9},
      {"smiles": "COc1ccc(C(=O)CC(=O)C(=O)Nc2ccccc2Cl)cc1", "hERG current change (%, negative = inhibition) at 1uM": 9.4},
      {"smiles": "COc1ccc(N2CC(C(=O)N3CCN(C(=O)c4ccco4)CC3)CC2=O)cc1", "note": "(stereo not shown)", "hERG current change (%, negative = inhibition) at 1uM": -8.81},
      {"smiles": "Cc1ccc(C)c(C(=O)Cn2ncc(Cl)c(Cl)c2=O)c1", "hERG current change (%, negative = inhibition) at 1uM": 11.9},
      {"smiles": "CC(NC(=O)c1ccc(NC(=O)CC2SC(N3CCCC3)=NC2=O)cc1)c1ccc(S(N)(=O)=O)cc1", "note": "(stereo not shown)", "hERG current change (%, negative = inhibition) at 1uM": 16.5},
      {"smiles": "COc1ccc(/C=C/C(=O)Nc2cc(F)ccc2C)cc1S(=O)(=O)N1CCOCC1", "hERG current change (%, negative = inhibition) at 1uM": 6.23},
      {"smiles": "COC(=O)c1ccccc1NS(=O)(=O)c1ccc(O)c(C(=O)O)c1", "hERG current change (%, negative = inhibition) at 1uM": -1.03},
      {"smiles": "CC1OC(Oc2ccc3ccc(=O)oc3c2-c2c(O)ccc3cc(Oc4ccc5ccc(=O)oc5c4)c(=O)oc23)C(O)C(O)C1O", "note": "(stereo not shown)", "hERG current change (%, negative = inhibition) at 1uM": 7.79},
      {"smiles": "CC(=O)Nc1cc(NC(C)=O)c(CC(C)C)s1", "hERG current change (%, negative = inhibition) at 1uM": 13.9},
      {"smiles": "CC(CNC(=O)CCS(=O)(=O)c1cc2c(cc1Cl)NC(=O)CO2)c1ccccc1", "note": "(stereo not shown)", "hERG current change (%, negative = inhibition) at 1uM": 6.9},
      {"smiles": "COc1ccc(C(=O)COC(=O)C(CCSC)NC(=O)COc2ccccc2)cc1", "note": "(stereo not shown)", "hERG current change (%, negative = inhibition) at 1uM": -2.6}
    ]}
  ]
}
